# Source: the antibiotic and cytotoxicity screens of Wong et al. (2023)
# Some of the results follow.
# Assays:
# HSkMC = human skeletal muscle cells; test: cytotoxicity call (relative viability < 0.9); conditions: 10 µM
# HepG2 = test: cytotoxicity call (relative viability < 0.9); conditions: 10 µM
# S. aureus RN4220 = test: growth inhibition call (relative growth <= 0.2); conditions: 50 µM
Structure (SMILES),cytotoxicity call (HSkMC),cytotoxicity call (HepG2),growth inhibition call (S. aureus RN4220)
C[C@H](CO)N1C[C@H](C)[C@@H](CN(C)S(=O)(=O)c2ccc(Cl)cc2)Oc2c(NC(=O)Nc3cccc4ccccc34)cccc2C1=O,inactive,active,inactive
COc1ccc(NC(=O)Nc2ccc3c(c2)CC(=O)N([C@@H](C)CO)C[C@H](C)[C@H](CN(C)S(=O)(=O)c2cn(C)cn2)O3)cc1,inactive,inactive,inactive
COc1ccc(NC(=O)Nc2ccc3c(c2)CC(=O)N([C@H](C)CO)C[C@@H](C)[C@H](CN(C)Cc2ccc(-c4ccccc4)cc2)O3)cc1,inactive,inactive,inactive
Cc1noc(C)c1NC(=O)N(C)C[C@@H]1Oc2ccc(NS(=O)(=O)c3c(C)noc3C)cc2C(=O)N([C@@H](C)CO)C[C@@H]1C,inactive,inactive,inactive
COc1ccc(S(=O)(=O)N(C)C[C@H]2OCCCC[C@H](C)Oc3ccc(NC(=O)CCC(F)(F)F)cc3C(=O)N([C@H](C)CO)C[C@H]2C)cc1,inactive,inactive,inactive
C[C@@H]1CCCCO[C@H](CN(C)C(=O)Nc2cccc3ccccc23)[C@H](C)CN([C@@H](C)CO)C(=O)c2cc(N(C)C)ccc2O1,inactive,inactive,inactive
Cc1noc(C)c1NC(=O)Nc1ccc2c(c1)C(=O)N([C@H](C)CO)C[C@H](C)[C@H](CN(C)C(=O)Nc1ccc(F)cc1)OCCCC[C@@H](C)O2,inactive,inactive,inactive
CCOC(=O)Nc1ccc(C)s1,inactive,inactive,inactive
Cc1noc(C)c1S(=O)(=O)Nc1ccc2c(c1)CC(=O)N([C@@H](C)CO)C[C@@H](C)[C@@H](CN(C)S(=O)(=O)c1cn(C)cn1)O2,inactive,inactive,inactive
COc1ccc(NC(=O)N(C)C[C@H]2Oc3ccc(NC(=O)Cn4cnnn4)cc3C(=O)N([C@@H](C)CO)C[C@H]2C)cc1,inactive,inactive,inactive
CNC[C@H]1Oc2ccc(NS(=O)(=O)c3cn(C)cn3)cc2C(=O)N([C@H](C)CO)C[C@@H]1C,inactive,inactive,inactive
COc1ccc(NS(=O)(=O)c2ccc(N)cc2)nn1,inactive,inactive,inactive
CC[C@H]1CN(C)N1C(=O)[C@@H]1CCCO1,inactive,inactive,inactive
COc1ccc(NC(=O)Nc2cccc3c2O[C@H](CN(C)Cc2ccc(Oc4ccccc4)cc2)[C@H](C)CN([C@@H](C)CO)C3=O)cc1,inactive,inactive,inactive
C[C@H](CO)N1C[C@H](C)[C@H](CN(C)C(=O)Nc2ccc3c(c2)OCO3)Oc2ccc(NC(=O)Nc3ccc(C(F)(F)F)cc3)cc2C1=O,inactive,inactive,inactive
COc1ccc2c3c(n(c2c1)C)[C@@H](CO)N(Cc1cc(cc(c1)OC)OC)C[C@]13CN(C1)C(=O)NC(C)C,inactive,inactive,inactive
C[C@@H]1CCCCO[C@H](CN(C)C(=O)Nc2ccc3c(c2)OCO3)[C@@H](C)CN([C@H](C)CO)C(=O)c2cc(NC(=O)Nc3ccccc3)ccc2O1,inactive,inactive,inactive
C[C@@H]1CCCCO[C@H](CN(C)C(=O)Nc2ccccc2)[C@@H](C)CN([C@H](C)CO)C(=O)c2cc(NC(=O)Nc3ccc4c(c3)OCO4)ccc2O1,inactive,inactive,inactive
C[C@H]1CN([C@@H](C)CO)S(=O)(=O)c2ccc(C#CCC3CCCC3)cc2O[C@@H]1CN(C)C(=O)c1cnccn1,inactive,inactive,inactive

Structure (SMILES),cytotoxicity call (HSkMC),cytotoxicity call (HepG2),growth inhibition call (S. aureus RN4220)
C[C@@H]1CN([C@@H](C)CO)C(=O)c2cc(NS(=O)(=O)c3ccccc3)ccc2O[C@@H](C)CCCCO[C@H]1CN(C)C(=O)C1CCCCC1,inactive,inactive,inactive
Nc1nc(=O)c2c([nH]1)NCC(CNc1ccc(C(=O)NC(CCC(=O)[O-])C(=O)[O-])cc1)N2C=O.[Ca+2] (stereo not drawn),inactive,inactive,inactive
NC(=O)CN1C(=O)C(=O)c2cc(Cl)ccc21,inactive,inactive,inactive
C[C@@H]1CN([C@@H](C)CO)C(=O)Cc2cc(NC(=O)Nc3cccc4ccccc34)ccc2O[C@@H]1CN(C)Cc1ccc(C(=O)O)cc1,inactive,inactive,inactive
C#CC1(O)CCC2C3CCc4cc(OC5CCCC5)ccc4C3CCC21C (stereo not drawn),inactive,inactive,inactive
C[C@@H]1CN([C@H](C)CO)C(=O)c2cccc(NC(=O)Nc3cccc4ccccc34)c2O[C@H]1CN(C)C(=O)NC1CCCCC1,inactive,inactive,inactive
C[C@]12CC[C@@H]3[C@]4(C=C[C@@]5(C=C4C(=O)c4cc6ccccc6s4)C[C@@H](O)CC[C@]35C)[C@@H]1CC[C@@]2(O)CN1CCC(n2c(=O)[nH]c3ccccc32)CC1,inactive,inactive,inactive
COc1cccc(CNC(=O)c2cc3c(c(-c4cccc(-c5ccncc5)c4)n2)[C@@H](CCO)N([S@@](=O)C(C)(C)C)C3)c1,inactive,inactive,inactive
O=C(C[C@@H]1C[C@@H]2c3cc(NC(=O)Nc4ccc(C(F)(F)F)cc4)ccc3O[C@@H]2[C@H](CO)O1)NC1CCCCC1,inactive,active,inactive
CC(=O)NCCOCCOCC(=O)N[C@@H]1C/C=C/CCC(=O)N[C@H](c2ccccc2)COC1=O,inactive,inactive,inactive
COc1ccc2c(c1)OC(C)(C)C[C@@H]2N,inactive,inactive,inactive
OC[C@@]1(O)CO[C@@H](OC[C@H]2O[C@@H](OCCc3ccc(O)cc3)[C@H](O)[C@@H](O)[C@@H]2O)[C@@H]1O,inactive,inactive,inactive
Cc1noc(C)c1NC(=O)Nc1ccc2c(c1)C(=O)N([C@@H](C)CO)C[C@H](C)[C@H](CN(C)S(=O)(=O)c1ccc(F)cc1)OCCCC[C@@H](C)O2,inactive,inactive,inactive
C[C@@H]1CN([C@@H](C)CO)C(=O)c2cc(NC(=O)Nc3cccc4ccccc34)ccc2O[C@H]1CN(C)Cc1ccc(C(=O)Nc2ccccc2N)cc1,inactive,inactive,inactive
C[C@H]1CN([C@@H](C)CO)C(=O)Cc2cc(NC(=O)Nc3ccc(F)cc3)ccc2O[C@H]1CN(C)S(=O)(=O)c1cn(C)cn1,inactive,inactive,inactive
O=C(CCCCC(=O)Nc1c(I)cc(I)c(C(=O)O)c1I)Nc1c(I)cc(I)c(C(=O)O)c1I,inactive,inactive,inactive
COc1ccc(CN(C)C[C@@H]2OCCCC[C@@H](C)Oc3ccc(NS(=O)(=O)c4ccc(F)cc4)cc3C(=O)N([C@H](C)CO)C[C@@H]2C)cc1,inactive,inactive,inactive
C[C@H](CO)N1C[C@H](C)[C@H](CN(C)C(=O)C2CCOCC2)Oc2ncc(C#CC3(O)CCCC3)cc2C1=O,inactive,inactive,inactive
CO[C@H]1CN(C)C(=O)c2ccc(NS(C)(=O)=O)cc2OC[C@H](C)N(C(=O)CN(C)C)C[C@@H]1C,inactive,inactive,inactive

Structure (SMILES),cytotoxicity call (HSkMC),cytotoxicity call (HepG2),growth inhibition call (S. aureus RN4220)
CCN(CC)Cc1ccc(Nc2ccnc3cc(Cl)ccc23)cc1O.Cl.Cl,inactive,active,inactive
Cc1noc(C)c1S(=O)(=O)N(C)C[C@H]1Oc2c(NC(=O)C3CCCCC3)cccc2C(=O)N([C@@H](C)CO)C[C@H]1C,inactive,inactive,inactive
O=C(C[C@H]1C[C@H]2c3cc(NS(=O)(=O)c4ccc(F)cc4)ccc3O[C@H]2[C@@H](CO)O1)NCc1ccccc1F,inactive,inactive,inactive
COc1ccccc1-c1ccc2c(c1)O[C@@H](CN(C)S(=O)(=O)c1ccccc1)[C@@H](C)CN([C@@H](C)CO)S2(=O)=O,inactive,inactive,inactive
Cc1noc(C)c1NC(=O)N(C)C[C@H]1Oc2ccc(NC(=O)Cn3cnnn3)cc2C(=O)N([C@H](C)CO)C[C@@H]1C,inactive,inactive,inactive
COc1ccc(S(=O)(=O)Nc2ccc3c(c2)C(=O)N([C@@H](C)CO)C[C@@H](C)[C@H](CN(C)C(=O)CCC(F)(F)F)OCCCC[C@H](C)O3)cc1,inactive,inactive,inactive
OCCNC(=S)Nc1ccccc1,inactive,inactive,inactive
C[C@H]1CN([C@@H](C)CO)C(=O)Cc2cc(NC(=O)NC3CCCCC3)ccc2O[C@H]1CN(C)Cc1ccc(Oc2ccccc2)cc1,inactive,active,inactive
NCCCN1CCCN(CCCN)CC1,inactive,inactive,inactive
C[C@H]1CN([C@@H](C)CO)C(=O)CCCn2cc(nn2)CO[C@H]1CN(C)Cc1ccc(C(=O)Nc2ccccc2N)cc1,inactive,inactive,inactive
CC(C)NC(=O)N(C)C[C@@H]1Oc2ccc(NC(=O)NC3CCCCC3)cc2C(=O)N([C@@H](C)CO)C[C@H]1C,inactive,inactive,inactive
C[C@H](CO)N1C[C@H](C)[C@H](CN(C)Cc2ccc(Oc3ccccc3)cc2)Oc2cc(-c3ccncc3)ccc2S1(=O)=O,inactive,inactive,inactive
O=C(COCc1nnn2c1CNCCC2)N1CCCC1,inactive,inactive,inactive
C[C@@H]1CN([C@H](C)CO)C(=O)c2cccc(NS(=O)(=O)c3cn(C)cn3)c2O[C@@H]1CN(C)Cc1ccncc1,inactive,inactive,inactive
C[C@@H]1CCCCO[C@H](CN(C)C(=O)c2ccncc2)[C@H](C)CN([C@H](C)CO)C(=O)c2cc(NS(=O)(=O)c3ccc(Cl)cc3)ccc2O1,inactive,inactive,inactive
COc1cccc(NC(=O)N[C@H]2C=C[C@@H](CC(=O)N3CCOCC3)O[C@H]2CO)c1,inactive,inactive,inactive
CCc1nc2ccc(C(=O)Nc3cccc(OCC(=O)N(C)C)c3)cn2c1N(C)C(=O)c1ccncc1,inactive,inactive,inactive
Cn1c(=O)c2c(nc(NCCN)n2C)n(C)c1=O,inactive,inactive,inactive
